# Data as given in PubChem BioAssay AID1347165 (National Center for Advancing Translational Sciences (NCATS), 2019).
# Screen size: about 220,000 compounds; about 5,700 (2.6%) were called active. Inconclusive means that the source gave no clear call. Such entries were picked first, then a sample of the others. Calls follow the shape of the dose curve; as a rule, active = well fitted inhibition curve with a large enough effect; inconclusive = small, poorly fitted or top-dose-only effect; inactive = no such curve, though single readings can be large or run the other way. Potencies of inconclusive entries are doubtful fits and often do not repeat.
# Biological target: Lysine-specific demethylase 5B (Homo sapiens) (UniProt Q9UGL1)
# Chain of UniProt Q9UGL1 (Q9UGL1 whole entry, looked up): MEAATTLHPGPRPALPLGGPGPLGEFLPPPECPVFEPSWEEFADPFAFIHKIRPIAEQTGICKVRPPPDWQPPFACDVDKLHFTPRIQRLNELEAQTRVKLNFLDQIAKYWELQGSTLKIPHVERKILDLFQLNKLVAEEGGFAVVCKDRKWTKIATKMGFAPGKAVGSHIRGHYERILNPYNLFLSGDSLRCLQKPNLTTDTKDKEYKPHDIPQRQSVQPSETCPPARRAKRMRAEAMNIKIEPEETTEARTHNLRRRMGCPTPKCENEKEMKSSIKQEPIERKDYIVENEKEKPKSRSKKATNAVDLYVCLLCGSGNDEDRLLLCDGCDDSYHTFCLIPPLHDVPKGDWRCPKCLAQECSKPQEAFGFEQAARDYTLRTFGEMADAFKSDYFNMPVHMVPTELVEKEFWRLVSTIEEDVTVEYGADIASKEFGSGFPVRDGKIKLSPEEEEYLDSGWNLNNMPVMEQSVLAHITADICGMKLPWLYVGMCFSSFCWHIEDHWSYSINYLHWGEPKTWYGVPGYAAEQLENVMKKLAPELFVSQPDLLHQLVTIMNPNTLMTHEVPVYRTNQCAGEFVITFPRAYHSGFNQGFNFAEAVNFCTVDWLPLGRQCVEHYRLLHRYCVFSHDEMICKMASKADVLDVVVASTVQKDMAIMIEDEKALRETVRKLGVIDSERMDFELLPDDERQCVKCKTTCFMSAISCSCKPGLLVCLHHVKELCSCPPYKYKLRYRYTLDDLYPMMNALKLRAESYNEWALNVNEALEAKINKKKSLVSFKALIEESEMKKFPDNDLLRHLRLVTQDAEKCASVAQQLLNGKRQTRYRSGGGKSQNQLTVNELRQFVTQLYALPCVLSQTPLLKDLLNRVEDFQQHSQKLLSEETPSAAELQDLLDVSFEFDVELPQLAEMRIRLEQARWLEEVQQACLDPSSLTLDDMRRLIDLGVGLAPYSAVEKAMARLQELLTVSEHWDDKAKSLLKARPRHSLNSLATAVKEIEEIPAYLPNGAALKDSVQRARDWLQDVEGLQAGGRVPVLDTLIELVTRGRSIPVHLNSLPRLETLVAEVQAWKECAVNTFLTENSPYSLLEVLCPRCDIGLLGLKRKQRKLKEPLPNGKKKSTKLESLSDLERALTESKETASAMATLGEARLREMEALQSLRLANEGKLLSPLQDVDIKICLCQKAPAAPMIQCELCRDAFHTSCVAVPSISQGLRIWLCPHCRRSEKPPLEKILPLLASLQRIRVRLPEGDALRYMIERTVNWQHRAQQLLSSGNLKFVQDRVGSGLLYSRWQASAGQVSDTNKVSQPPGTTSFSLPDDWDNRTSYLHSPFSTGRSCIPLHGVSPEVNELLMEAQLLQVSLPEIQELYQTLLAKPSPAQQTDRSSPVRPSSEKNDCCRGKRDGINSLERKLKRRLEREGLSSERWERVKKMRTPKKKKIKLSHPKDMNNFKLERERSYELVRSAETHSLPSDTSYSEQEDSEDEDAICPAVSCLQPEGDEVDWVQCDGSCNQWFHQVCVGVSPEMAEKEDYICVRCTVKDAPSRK
# Experiment: Primary screen for KDM5B Histone Demethylases FDH-coupled qHTS; also: nearly all actives have a fitted effect of over 70% in size; as to activity change, negative = inhibition: 0% is about no effect
# Conditions: FDH-coupled NADH fluorescence (FDH is formaldehyde dehydrogenase); activity change, negative = inhibition: at 57.7 µM (top of the series) unless noted
# Outline: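 Compound dilutions met 200 nM (final) KDM5BΔAP for 10 min at room temperature before substrate addition. The substrate mix held 12.5 µM H3K4me3 with cofactors 25 µM α-ketoglutarate and 50 µM Fe²⁺. NADH signal gain over 30 min defined activity.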
# Potency is read from the fitted curve at half-maximal effect; tags tell the direction and shape of the fitted curve.
Compound,Potency,"activity change, negative = inhibition"
COc1ccc(Nc2nc(N3CCN(c4ccccc4)CC3)c3cnn(C)c3n2)cc1OC,"inconclusive: 39.8 µM [inhibitor, single point]",–
COC(=O)c1cc(-c2ccc(F)cc2)nc2onc(C)c12,"inconclusive: 2 µM [inhibitor, full curve, poor fit]",–
CCC(=O)N1CCN(c2nc3c(s2)CC(C(=O)NCc2cccs2)CC3)CC1 (centres undefined),inactive,–
O=C(Cn1ncc2c3ccccc3n(Cc3ccc(Cl)cc3)c2c1=O)N1CCCCCC1,"inconclusive: 7.08 µM [inhibitor, partial curve, poor fit]",–
COc1ccc2[nH]c3c(c2c1)CCN(C)C31CCN(C(=O)c2nccc3ccccc23)CC1,inactive,–
COc1cccc(-c2cn3c(n2)sc2cc(C(=O)NC4CCCCCC4)ccc23)c1,"inconclusive: 2 µM [inhibitor, full curve, poor fit]",–
O=C(Cn1ccn2nc(-c3ccc(F)cc3)c(CO)c2c1=O)Nc1cccc(Cl)c1,"inconclusive: 10 µM [inhibitor, partial curve, poor fit]",–
Cc1ccc(NC(=O)C(C)N(C)Cc2ccc3c(c2)OCCO3)c(Br)c1 (centres undefined),inactive,–
CCc1ccc(NC(=O)c2cc(S(=O)(=O)NC3CCCC3)ccc2F)cc1,"inconclusive: 1.41 µM [inhibitor, full curve, poor fit]",–
COc1cc(OC)c(NC(=O)c2nnn(Cc3ccc(C)cc3)c2N)cc1Cl,–,inconclusive: -48.1% [inhibitor]
CCCCCN1CCN(c2nc3c(c(=O)[nH]c(=O)n3C)n2Cc2ccccc2C)CC1,inactive,–
Cc1cccc(NC(=O)c2cc(=O)c3cc(C)ccc3o2)c1,inactive,–
COc1ccc(CN2C(=O)CO[C@H](c3ccc(NS(=O)(=O)c4ccc(F)cc4)cc3)[C@H]2CO)cc1,inactive,–
CCc1ccc(CNC(=O)c2sc3nc(C)nc(N4CCCC4)c3c2C)cc1,"inconclusive: 28.2 µM [inhibitor, single point]",–
O=C(NC1CCN(c2nc3ncccc3o2)CC1)c1ccccc1F,"inconclusive: 20 µM [inhibitor, partial curve, poor fit]",–
CCCOc1ccccc1C(N)C(=O)OCC (centres undefined),"inconclusive: 39.8 µM [inhibitor, single point]",–
Cc1cccc(-c2cccc3c4c([nH]c23)[C@@H]2C[C@H](N(C)C(=O)Nc3ccccc3)[C@H]([C@H](C)O)C(=O)N2CC4)c1,"inconclusive: 31.6 µM [inhibitor, partial curve, poor fit]",–
Cc1oc(-c2cccs2)nc1CC(=O)NCc1ccc2c(c1)OCO2,"inconclusive: 22.4 µM [inhibitor, single point]",–
Cc1cc(N2CCN(Cc3nc(-c4cccc(Cl)c4)no3)CC2)cc(C)n1,inactive,–
O=C(Nc1sc2c(c1C(=O)Nc1ccccc1Cl)CCCC2)c1ccccc1F,"inconclusive: 35.5 µM [inhibitor, single point]",–
COCCCNC(=O)Cn1c(=O)n(Cc2ccc(C(=O)NCc3ccc(C)cc3)cc2)c(=O)c2ccccc21,"inconclusive: 1.58 µM [inhibitor, partial curve, poor fit]",–
N#Cc1ccc(NC(=O)COC(=O)c2nc(-c3ccccc3)n(-c3ccccc3)n2)cc1,inactive,–

Compound,Potency,"activity change, negative = inhibition"
COC(=O)c1ccc(NC(=O)CSc2nc3ccc(OC)cc3[nH]2)cc1,"inconclusive: 1.58 µM [inhibitor, full curve, poor fit]",–
CC1=C(c2ccc(C)cc2)S(=O)(=O)N(Cc2ccc(C(=O)NCc3cccc(C)c3)cc2)C1=O,"inconclusive: 28.2 µM [inhibitor, partial curve, poor fit]",–
COc1ccccc1CNS(=O)(=O)c1ccc2[nH]c3c(c2c1)CCCCC3,"inconclusive: 25.1 µM [inhibitor, single point]",–
Cc1ccc(NC(=O)CNCC(c2ccccc2)N(C)C)cc1F (centres undefined),"inconclusive: 28.2 µM [inhibitor, single point]",–
CCc1ccccc1NC(=O)C(=O)NCCc1csc(-c2cccc(F)c2)n1,inactive,–
COc1cccc(-n2nnc3c(sc4nc(C)cc(C)c43)c2=O)c1,"inconclusive: 1.58 µM [inhibitor, partial curve, poor fit]",–
CN1[C@@H](CCC(=O)NCc2ccco2)CNC(=O)[C@H]2NCC[C@H]21,inactive,–
Cc1ccc(NC(=O)c2ncoc2-c2ccc(C)o2)c(Cl)c1,inactive,–
CS(=O)(=O)N1CC2(CCCCN2CC2CC2)Cc2ccccc21 (centres undefined),inactive,–
COc1ccc2oc(=O)c(-c3nc(-c4cc(OC)c(OC)c(OC)c4)no3)cc2c1,"inconclusive: 44.7 µM [inhibitor, single point]",–
CC(C)c1ccc(NC(=O)c2cc3c(s2)CCC3)cc1,inactive,–
Cc1ccc(C(=O)N2CCC3(CC2)CCN(Cc2cccs2)c2ccccc2O3)cc1,"inconclusive: 11.2 µM [inhibitor, partial curve]",–
Cc1cc(Nc2cccc(Cl)c2)nc2ccc(NC(=O)C3CCC(C)CC3)cc12 (centres undefined),"inconclusive: 2 µM [inhibitor, full curve, poor fit]",–
COC(=O)c1ccc(N2CC3=C(C2=O)C(c2ccccc2)NC(=O)N3C)cc1 (centres undefined),"inconclusive: 1.78 µM [inhibitor, partial curve, poor fit]",–
Cc1ccc(CCNC(=O)c2ccc3c(=O)n(-c4ccc(C)cc4)c(=O)[nH]c3c2)cc1,inactive,–
COc1cccc(CN2CC[C@@](C)(O)[C@H](N3CCCC3)C2)c1OC,"inconclusive: 17.8 µM [inhibitor, partial curve, poor fit]",–
CCOc1cccc2sc(NC(=O)c3ccc(S(=O)(=O)N4CCCc5ccccc54)cc3)nc12,"inconclusive: 1.26 µM [inhibitor, partial curve, poor fit]",–
CCn1ncc(NC(=O)Cn2ncc3cc(-c4ccc(C(=O)N(C)C)cc4)ccc32)n1,"inconclusive: 28.2 µM [inhibitor, partial curve, poor fit]",–
CCNc1ncc(C(=O)N2CCC(O)(CN3CCOCC3)C(C)(C)C2)cn1 (centres undefined),"inconclusive: 25.1 µM [inhibitor, partial curve, poor fit]",–
c1ccc2ncc(CN3CC[C@H](c4nc5ccccc5[nH]4)C3)cc2c1,"inconclusive: 39.8 µM [inhibitor, single point]",–
O=C(c1nnc(COc2ccc(F)cc2F)n1-c1ccccc1)N1CCC[C@@H]1c1cccc(F)c1,"inconclusive: 35.5 µM [inhibitor, single point]",–
NC1CC(c2cc(NCCN3N=C(c4ccccc4)CCC3=O)ncn2)C1 (centres undefined),"inconclusive: 7.08 µM [inhibitor, partial curve]",–

Compound,Potency,"activity change, negative = inhibition"
O=c1c2sccc2ncn1Cc1coc(-c2cccc(F)c2)n1,inactive,–
CCCC(=O)N1Cc2ccccc2CC2(CCN(Cc3ccncc3)C2)C1 (centres undefined),"inconclusive: 44.7 µM [inhibitor, partial curve, poor fit]",–
C[C@@]1(O)CCN(Cc2cc(=O)n3[nH]cnc3n2)C[C@@H]1O,"inconclusive: 2.82 µM [inhibitor, partial curve, poor fit]",–
CCNC(=O)NC(=O)C(C)OC(=O)c1cc(-c2cccs2)nc2ccccc12 (centres undefined),"inconclusive: 35.5 µM [inhibitor, partial curve, poor fit]",–
Cc1cc(C)cc(N(C(C)C(=O)N2CCCCCC2)S(C)(=O)=O)c1 (centres undefined),"inconclusive: 39.8 µM [inhibitor, single point]",–
N#Cc1ccccc1NC1=CC(=O)CC(c2ccccc2)C1 (centres undefined),inactive,–
CCSc1ncc(-c2c(-c3ccccc3)ncn2CC[C@@H](C)CO)cn1,active: 14.1 µM,–
COCCn1c(CNC(=O)c2cccc(N(C)C)c2)nc2cccnc21,"inconclusive: 25.1 µM [inhibitor, partial curve, poor fit]",–
CC(=O)c1ccc(N2CCN(C(=O)C3CCN(S(=O)(=O)c4ccc(Br)s4)CC3)CC2)cc1,"inconclusive: 35.5 µM [inhibitor, partial curve, poor fit]",–
O=C(CN1CCN(c2ccccc2)CC1)c1c[nH]c2ccccc12,inactive,–
Cc1oc2c(c1C(=O)N(C)CC(=O)N1CCOCC1)CN(Cc1ccc(F)cc1)CC2,"inconclusive: 35.5 µM [inhibitor, single point]",–
COC(=O)C1=C(C)NC2=C(C(=O)CCC2)C1c1ccsc1 (centres undefined),"inconclusive: 39.8 µM [inhibitor, partial curve, poor fit]",–
CC(Oc1ccc2ccc(=O)oc2c1)C(=O)NC(N)=O (centres undefined),"inconclusive: 22.4 µM [inhibitor, partial curve, poor fit]",–
O=C(c1ccc(C(F)(F)F)s1)N1CCc2c(nc(-c3ccccc3)[nH]c2=O)C1,inactive,–
COCCCNC(=O)c1cn(CC(C)C)c(=O)c2c1c1ccccc1n2C,"inconclusive: 28.2 µM [inhibitor, partial curve, poor fit]",–
O=C(c1ccc(C(F)(F)F)cc1)N1CCN(C/C=C/c2ccccc2)CC1,inactive,–
Cc1ccc(-c2cn3c(n2)sc2cc(C(=O)NCCC4=CCCCC4)ccc23)c(C)c1,"inconclusive: 2 µM [inhibitor, full curve, poor fit]",–
COCCNc1nc2cc(C(=O)N3CC[C@H](CO)[C@@H](O)C3)ccc2n1C,active: 28.2 µM,–
COC(=O)c1ccc(COc2ccc3c(=O)c(-c4ccccc4OC)c(C)oc3c2)cc1,inactive,–
CC(C)(CC(=O)O)CC(=O)N[C@H]1CO[C@H]2[C@@H]1OC[C@@H]2Nc1nccc(-c2ccc3c(c2)OCO3)n1,active: 28.2 µM,–
